Source: PubChem BioAssay (NCI)
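Results reflect a 48-hour exposure of cells in 96-well plates to compound at five concentrations. Abbreviation: GI50, concentration required for 50% inhibition of growth. TGI: concentration producing complete growth inhibition.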

Tested on: NCI-H322M lung
Assay: inhibition of tumour cell growth, NCI panel, 48 h

`CC(C)c1cc2c(cc1S(=O)(=O)O)[C@@]1(C)CCC[C@@](C)(C(=O)O)C1CC2` (stereo partly drawn) and `C=C1CCN2CC[C@@H](OC(=O)/C(C)=C\C)[C@@H]12` cannot be ordered by TGI: greater than 100 µM for the first, greater than 100 µM for the second.

Going from `Oc1ccc(-c2nc3ccc(Br)cc3s2)cc1` to `Cc1ccc(Oc2ccc(C)cc2N)cc1`, the TGI rises from 81.4 µM to greater than 100 µM.

`COC(=O)C1CC(C=[N+](C)C)=C(SC)N1C(=O)OCc1ccccc1` (stereo not drawn) and `CCOP(=O)(OCC)C(F)(F)c1ccc(CC(NC(=O)OC(C)(C)C)C(=O)O)cc1` (stereo not drawn) cannot be ordered by TGI: greater than 100 µM for the first, greater than 10 µM for the second.

Compared with `Cc1ccc(/C=C/C(=O)CCN(C)C)cc1`, `CN(C)CCn1c2c3ccccc3ccc2c2oc(=O)c3ccccc3c21` is lower in TGI: greater than 100 µM for the first, 32.2 µM for the second.

`C/C(=N/Nc1ccc([N+](=O)[O-])cc1[N+](=O)[O-])C(CC(C(=O)NCc1ccccc1)/C(C)=N\Nc1ccc([N+](=O)[O-])cc1[N+](=O)[O-])C(=O)NCc1ccccc1` (stereo not drawn) and `Nc1cc(NN=C(c2ccc(O)cc2)c2ccc(O)cc2)c([N+](=O)[O-])cc1[N+](=O)[O-]` are within 1.5-fold of each other in TGI: 5.13 µM for the first, 7.49 µM for the second.

`C#CCn1c(=O)c2ccccc2n(CC#C)c1=O` and `CC(=O)Nn1c(=S)[nH]c2ccccc21` cannot be ordered by TGI: greater than 10 µM for the first, greater than 100 µM for the second.

First: N#CC(Cc1ccccc1)N(CCC1=CCCCC1)C(c1ccccc1)c1ccccc1 (stereo not drawn)
Second: O=C(CCCSc1nc(-c2ccccc2)cc(-c2ccccc2)n1)NO
The TGI of the first is higher: greater than 100 µM for the first, 10.5 µM for the second.

`COc1ccc(OC)c(N2CC(N)C2=O)c1` (stereo not drawn) and `COc1ccc(-c2cn[nH]c2-c2cc(OC)c(OC)c(OC)c2)cc1` cannot be ordered by TGI: greater than 100 µM for the first, greater than 44.6 µM for the second.

`COc1ccc2nc(NC(=O)CSc3nnc4n3S(=O)(=O)c3ccccc3N4c3ccccc3)sc2c1` and `N#C/C(=C1/Sc2c(nc[nH]c2=O)N1c1ccccc1)c1nc2ccccc2[nH]1` cannot be ordered by TGI: greater than 100 µM for the first, greater than 100 µM for the second.

`CC(=O)c1c2c(c3ccccc3c1O)O[C@@H]1OCC[C@H]21` and `CC(C)(C)c1cc2c(O)c3cccc4c(=O)c5cccc6c5-c(c34)c2c(c1)c6=O` cannot be ordered by TGI: greater than 100 µM for the first, greater than 100 µM for the second.

`O=C(N/N=C/c1ccc(Cl)cc1)c1c(Cl)c(Cl)c(Cl)c(Cl)c1-c1nc2ccccc2[nH]1` and `COc1ccc(/C=N/NC(=O)c2cccc3cc[nH]c23)cc1O` cannot be ordered by TGI: greater than 100 µM for the first, greater than 100 µM for the second.

Going from `COc1ccc(CCN=C2NC(=O)/C(=C/c3ccc4ncccc4c3)S2)cc1` to `CCCOc1cc2ccccc2cc1C(=O)Nc1nc(N)c2c(ccc3nccc32)[nH]1`, the TGI falls from greater than 25 µM to 2.6 µM.

`O=[N+]([O-])c1ccc2[nH]nc(OCc3ccccc3Cl)c2c1` and `Oc1ccccc1CNCc1nc2ccccc2[nH]1` cannot be ordered by TGI: greater than 100 µM for the first, greater than 100 µM for the second.

`COc1ccc(C(=C2C=CC=C2)c2ccc(OC)cc2)cc1` and `COc1cccc(Nc2nc(-c3cccs3)nc3cc(OC)c(OC)cc23)c1` cannot be ordered by TGI: greater than 100 µM for the first, greater than 100 µM for the second.

Going from `CCC(=C/[C@H](C)C/C=C/C(C)=C/[C@@H](C)C(=O)[C@@H](C)[C@H](O)[C@@H](C)CC)/C=C/[C@H]1OC(=O)C=C[C@@H]1C` to `CC(C)=CCC(O)C1=CC(=O)c2c(O)ccc(O)c2C1=O` (stereo not drawn), the TGI rises from 4.24 µM to 7.3 µM (1.7-fold).

`CCOC(=O)Nc1sc2c(c1C#N)CCCC2` and `Nc1c(C(=O)Nc2cccc(C(F)(F)F)c2)sc2nc3c(cc12)CCCCC3` cannot be ordered by TGI: greater than 100 µM for the first, greater than 100 µM for the second.

`CCCCCC1=CC(=O)C1(Cl)Cl` and `CCCCCC[C@@H]1CCC2C(CO)[C@@H](O)CC[C@@H]2C1` (stereo partly drawn) are within 1.5-fold of each other in TGI: 27.6 µM for the first, 30.1 µM for the second.

Compared with `COc1cc(S(=O)(=O)Nc2nc(-c3ccc(N4C(=O)C(CC(=O)O)SC4c4cccs4)cc3)cs2)ccc1Cl` (stereo not drawn), `C=C1C(=O)O[C@H]2[C@H]1CC/C(COC(=O)NCc1ccc(Cn3c(=O)sn(-c4ccc(OC)cc4)c3=O)cc1)=C\CC[C@@]1(C)O[C@@H]21` is lower in TGI: greater than 100 µM for the first, 26.7 µM for the second.

`Nc1nc(SCCC/C=C/I)nc2c1ncn2C1OC(COP(=O)(O)O)C(O)C1O` (stereo not drawn) and `COc1nc(NC2OC(COC(C)=O)C(OC(C)=O)C(OC(C)=O)C2OC(C)=O)c2c(OC(C)=O)cc(=O)oc2n1` (stereo not drawn) cannot be ordered by TGI: greater than 100 µM for the first, greater than 100 µM for the second.

First: N=c1nnc2ccc(Cl)cc2n1O
Second: N#Cc1c[nH]n2c(N=Nc3ccc(Cl)cc3)c(O)nc12
The TGI of the first is higher: greater than 100 µM for the first, 91 µM for the second.

Compared with `COc1ccc2cc1Oc1ccc(cc1)C[C@H]1c3cc(c(OC)cc3CCN1C)Oc1c(O)c(OC)cc3c1[C@H](C2)N(C)CC3`, `O=C1c2cc3c(cc2-c2c1c1ccc(F)cc1c(=O)n2C[C@H](O)[C@@H](O)[C@H](O)CO)OCO3` is 5.2-fold lower in TGI: 72.2 µM for the first, 13.8 µM for the second.

`CCCCCCCC/C=C\CCCCCCCCCCCC(=O)O` and `NC(N)=Nc1ccc(CC(N)NCC(=O)O)cc1` (stereo not drawn) cannot be ordered by TGI: greater than 115 µM for the first, greater than 25 µM for the second.

First: CCN(CC)C(=S)N/N=C/c1cc([N+](=O)[O-])ccc1O
Second: O=[N+]([O-])c1cc(C=NC23CC4CC(CC(C4)C2)C3)ccc1Cl
The TGI of the first is lower: 77.6 µM for the first, greater than 100 µM for the second.

`CC1CN(C)c2ccccc2N=C1NN` (stereo not drawn) and `COc1ncc(/C=C2\OC(=O)c3ccccc32)c(OC)n1` cannot be ordered by TGI: greater than 100 µM for the first, greater than 100 µM for the second.

`O=C(O)c1nc2nc(Cl)c(Cl)nc2[nH]1` and `NC(=O)c1ccccc1NC(=O)C(=O)C(C(=O)c1ccc(Cl)c(Cl)c1)C1OC(=O)c2ccccc21` (stereo not drawn) cannot be ordered by TGI: greater than 100 µM for the first, greater than 100 µM for the second.

`O=S(=O)(N/N=C/c1cccc(/C=N/NS(=O)(=O)c2ccccc2)c1)c1ccccc1` showed a TGI greater than 100 µM.

Going from `COc1ccc2nc(NC(=O)CSc3nnc4n3S(=O)(=O)c3ccccc3N4c3ccccc3)sc2c1` to `O=C(CCCSc1nc(-c2ccccc2)cc(-c2ccccc2)n1)NO`, the GI50 falls from greater than 100 µM to 1.76 µM.

First: COc1ccc(CCN=C2NC(=O)/C(=C/c3ccc4ncccc4c3)S2)cc1
Second: CCCOc1cc2ccccc2cc1C(=O)Nc1nc(N)c2c(ccc3nccc32)[nH]1
The GI50 of the first is higher: greater than 25 µM for the first, 1.06 µM for the second.

Going from `CCC(=C/[C@H](C)C/C=C/C(C)=C/[C@@H](C)C(=O)[C@@H](C)[C@H](O)[C@@H](C)CC)/C=C/[C@H]1OC(=O)C=C[C@@H]1C` to `O=C1c2cc3c(cc2-c2c1c1ccc(F)cc1c(=O)n2C[C@H](O)[C@@H](O)[C@H](O)CO)OCO3`, the GI50 rises from less than 0.01 µM to 0.219 µM.

First: C=C1C(=O)O[C@H]2[C@H]1CC/C(COC(=O)NCc1ccc(Cn3c(=O)sn(-c4ccc(OC)cc4)c3=O)cc1)=C\CC[C@@]1(C)O[C@@H]21
Second: COc1ccc(/C=N/NC(=O)c2cccc3cc[nH]c23)cc1O
The GI50 of the first is 1.7-fold higher: 13.8 µM for the first, 8.3 µM for the second.

Compared with `N#Cc1c[nH]n2c(N=Nc3ccc(Cl)cc3)c(O)nc12`, `COc1ccc(-c2cn[nH]c2-c2cc(OC)c(OC)c(OC)c2)cc1` is 420-fold lower in GI50: 23.5 µM for the first, 0.0553 µM for the second.

Going from `Nc1cc(NN=C(c2ccc(O)cc2)c2ccc(O)cc2)c([N+](=O)[O-])cc1[N+](=O)[O-]` to `Nc1c(C(=O)Nc2cccc(C(F)(F)F)c2)sc2nc3c(cc12)CCCCC3`, the GI50 rises from 2.44 µM to 4.91 µM (2-fold).
